Results from PubChem BioAssay AID488969 (Vanderbilt High Throughput Screening Facility, 2010).
Whole data set: some 110,000 compounds, median “z-score” near -0.1, cut for the highest 2% near 2. Some of the results follow. Active and inactive are the calls of the source.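 How the source made its calls: active means z-score in the third read window above 3 or below -3; inactive means the rest.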

These compounds were tested against Metabotropic glutamate receptor 8 (Rattus norvegicus) (UniProt P70579) (assay: mGluR8 Gi/Go-coupled signaling modulation – cell-based, rat, thallium flux, HTS, primary screen (AID 488969)). Details: HEK293 rat mGluR8, GIRK (G protein-gated inwardly rectifying potassium channel) thallium flux, FluoZin2; at 10 µM; stronger effect = higher value; submaximal glutamate (EC20) added with thallium.
Chain of UniProt P70579 (P70579 whole entry, looked up): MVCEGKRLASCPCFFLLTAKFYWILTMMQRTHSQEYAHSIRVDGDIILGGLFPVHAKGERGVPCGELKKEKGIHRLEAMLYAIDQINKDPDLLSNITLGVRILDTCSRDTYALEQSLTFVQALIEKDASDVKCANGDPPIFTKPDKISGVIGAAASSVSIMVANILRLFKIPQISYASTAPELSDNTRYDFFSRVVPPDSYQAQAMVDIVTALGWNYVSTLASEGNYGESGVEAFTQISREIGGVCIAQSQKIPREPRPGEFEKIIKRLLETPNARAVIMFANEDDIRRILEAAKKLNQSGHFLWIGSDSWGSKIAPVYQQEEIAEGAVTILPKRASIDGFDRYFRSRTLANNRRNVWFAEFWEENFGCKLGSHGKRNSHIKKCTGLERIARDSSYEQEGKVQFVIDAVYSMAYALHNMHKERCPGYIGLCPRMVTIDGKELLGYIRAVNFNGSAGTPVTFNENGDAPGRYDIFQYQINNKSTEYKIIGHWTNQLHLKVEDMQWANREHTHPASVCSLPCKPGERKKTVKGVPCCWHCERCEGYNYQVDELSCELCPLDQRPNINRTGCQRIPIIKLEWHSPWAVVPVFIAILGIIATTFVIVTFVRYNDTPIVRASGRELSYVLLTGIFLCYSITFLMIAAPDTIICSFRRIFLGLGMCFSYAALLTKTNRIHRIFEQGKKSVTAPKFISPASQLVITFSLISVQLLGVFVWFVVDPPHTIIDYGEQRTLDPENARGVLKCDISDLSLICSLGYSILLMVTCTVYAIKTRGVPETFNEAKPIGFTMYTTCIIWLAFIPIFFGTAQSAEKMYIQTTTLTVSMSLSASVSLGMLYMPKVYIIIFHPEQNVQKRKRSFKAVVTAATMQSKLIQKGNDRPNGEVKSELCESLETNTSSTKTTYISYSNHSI

Structure (SMILES) | z-score
O=C(O)c1cn(-c2ccccc2)nc1C(=O)O | 1.18
O=C1C2C3CCC(C3)C2C(=O)N1CNc1ccc(F)cc1 (centres undefined) | 0.026
COc1ccc(NS(=O)(=O)c2cccc(C(=O)N/N=C/c3cccs3)c2)cc1 | -0.428
Nc1nncn1C(=O)CCCN1C(=O)c2ccccc2C1=O | 0.0919
O=C(N/C(=C\c1cccs1)C(=O)N1CCCCCC1)c1ccccc1 | -0.369
Cc1cc(C)nc(Sc2c(C)n[nH]c2C)n1 | -0.38
Cc1nc(NC(=O)/C=C/c2ccc(C(C)(C)C)cc2)sc1C(=O)N(C)C | -0.097
O=C(c1cc(-c2ccccn2)nc2c(Cl)cccc12)N1CCN(C(=O)C2CCCO2)CC1 (centres undefined) | -1.12
Cc1cc(C)n(CCc2nc3c4ccccc4n(CC#N)c(=O)n3n2)n1 | 0.14
O=C(Nc1nnc(-c2ccccc2F)s1)C1CCN(S(=O)(=O)c2ccc(Cl)cc2)CC1 | -0.468
Cn1c(C(=O)N2CCCC(C(=O)NCCCc3ccccc3)C2)cc2sccc21 (centres undefined) | -1.12
CC(=O)c1cc2c(cc1NC(=O)CN1CCCCCC1)OCO2 | 0.469
COC(=O)NCc1cccc(CNC(=O)OC)c1 | -0.227
O=C(c1cc([N+](=O)[O-])ccc1Cl)N1c2ccccc2Sc2ccccc21 | -0.86
CCN(CC)S(=O)(=O)c1cc(C(=O)O)ccc1Cl | -0.121
COc1ccc(S(=O)(=O)N(C)c2ccc(C(=O)N3CCOCC3)cc2)cc1 | -0.148
Cc1ccc(N(CC(=O)N/N=C/c2ccc(OC3CSC3)cc2)S(=O)(=O)c2ccccc2)cc1 | 1.24
COc1cccc(/C=N/Nc2nc(Nc3ccccc3)nc(-n3nc(C)cc3C)n2)c1O | -0.216
CC1CCc2sc(C(=O)NN=C3CCC(c4ccccc4)CC3)cc2C1 (centres undefined) | -0.195
COC(=O)C(NC(C)=O)(Nc1nc(C)cs1)C(F)(F)F (centres undefined) | -0.288
O=C(NCC(=O)N(Cc1cccs1)C(C(=O)NC1CCCCC1)c1ccco1)c1cccs1 (centres undefined) | -0.518
CN1CCn2c1nc(N1CCOCC1)nc2=O | -0.213
COCCCN1CCc2[nH]c(=S)[nH]c(=O)c2C1 | 0.0422

Structure (SMILES) | z-score
CCc1cc(=O)oc2c(C)c(O)c(CN(C)C)cc12 | 0.82
CC(c1ccco1)N(C(=O)Nc1ccc(Cl)cc1)c1ccccn1 (centres undefined) | -0.277
CCOc1ccc(-n2c(-c3ccc(OC)cc3)c[n+]3c2CCCCC3)cc1 | -0.114
CC(C)CNC(=O)c1ccc(NC(=O)c2cccs2)cc1 | -0.183
CN(C)S(=O)(=O)c1cccc2nsnc12 | 0.268
Cc1ccc(C)c(S(=O)(=O)N2CCC(c3nc4c(nnn4Cc4ccc(F)cc4)c(=O)[nH]3)CC2)c1 | 0.0652
COc1ccc2c(c1)c(=O)oc1c(C)c(OCC(=O)N3CCc4ccccc4C3)ccc12 | -0.0949
O=C(c1ccc(C(F)(F)F)cc1)c1c[nH]c(C(=O)NCCCn2ccnc2)c1 | -0.111
CCOC(=O)NCc1ccc(Cl)c(Cl)c1 | 0.431
Cc1sc2nc(C3CC3)nc(SCC(=O)N3CCc4ccccc4C3)c2c1C | 1.45
O=C(O)C1CCCN(S(=O)(=O)c2ccc(Br)cc2)C1 (centres undefined) | -0.276
CCOC(=O)N1CCN(C(=O)c2ccc(Cn3c(=S)[nH]c4cc5c(cc4c3=O)OCO5)cc2)CC1 | -2.98
Cc1ccc(NC(=O)CC2C(=O)NC3CCCCC3N2C(=O)c2ccc(F)cc2)cc1C (centres undefined) | -0.212
COc1ccc(C(=O)Nc2cccc(C(=O)N3CCCC3)c2)cc1 | -0.286
O=c1cc(CSc2ccccc2)[nH]c(=S)[nH]1 | 0.601
COc1ccc(OC(C)C(=O)N2CCC(C)CC2)cc1 (centres undefined) | 0.926
O=C1CC2CS(=O)(=O)CC2N1C1CCCCC1 (centres undefined) | -0.11
O=C(c1c(F)cccc1F)N1CCC(O)(c2cccnc2)CC1 | -0.039
Cc1cc(NC(=O)CSc2nnc(C3CC3)n2Cc2ccccc2)no1 | -0.188
O=C(Nc1cccc(C(=O)N2CCOCC2)c1)c1cncc(Br)c1 | -0.0638
N#C/C(=C/c1ccccc1[N+](=O)[O-])C(=O)NCc1ccco1 | 0.294
COc1cccc(/C=N\NC(=O)c2sc(N)nc2C)c1OC | -0.0535
CCSc1nnc(-c2ccc(C)cc2)c2ccccc12 | -0.42

Structure (SMILES) | z-score
Clc1ccc(OCCSc2ncccn2)c2ccccc12 | -0.00595
O=C(CN1CCCCCC1)OCCN=C1NS(=O)(=O)c2ccccc21 | 0.851
Cc1ccc2nc(C)/c(=N\O)c(C)nc2c1 | -0.0738
NC(=O)c1cccnc1Nc1ccccc1F | -0.234
Cc1ccc2nc3c(cc2c1)c(NC(=O)c1ccccn1)nn3CC(C)C | 0.222
Cc1ccc2c(c1)C1OCCC1C1N2C(=O)C2C(C(=O)O)C3C=CC21O3 (centres undefined) | 0.325
Cc1cc(NC(=O)c2cccc3ccccc23)cc(C)c1OCC(=O)N1CCOCC1 | 0.469
COc1ccc(-n2c(COc3ccc(Cl)cc3)nnc2SCc2ccc(C#N)cc2)cc1 | 0.113
CSc1ccccc1C(=O)NCCCOC(C)C | -0.577
N=c1c2c(ncn1CCN1CCOCC1)Oc1ccc3ccccc3c1C2c1ccccc1 (centres undefined) | active: 4.03
N#Cc1cc2c(=O)n3ccccc3nc2n(CC2CCCO2)c1=N (centres undefined) | -0.341
CCNc1nc(NCC)nc(N(C)N)n1 | -0.063
C=CCn1c(SCC(=O)Nc2ccc3c(c2)OCO3)nnc1-c1cc(Br)ccc1O | -1.31
Cc1ccc(Nc2nnc(SCc3cc(=O)n4ccsc4n3)s2)c(C)c1 | 0.497
O=C(CCl)Nc1nc(-c2ccco2)c(-c2ccco2)s1 | 0.0191
O=C(Nc1ccc2nc3ccccc3nc2c1)c1ccc(Br)cc1 | -0.078
CCOC(=O)N1CCN(C(=O)CCCOc2ccccc2)CC1 | 1.69
Cc1cc(C)n2cc(CSc3nnnn3-c3ccccc3C)nc2n1 | -0.75
CC(C)(C)OC(=O)NNC(=O)c1ccc(Cl)cc1 | -0.212
COc1ccc2nc(NC(=O)CN3CCOCC3)sc2c1 | -0.487
CN(Cc1cc([N+](=O)[O-])c2cccnc2c1O)C1CCCCC1 | -0.107
CCOc1cc(/C=N\NC(=O)C2C(=O)NCC2c2ccccc2)ccc1OC (centres undefined) | -0.196
Cc1ccc(COc2ccc(Br)cc2/C=N/O)cc1 | -0.148

Structure (SMILES) | z-score
O=C(NC(=S)Nc1cccc(Cl)c1N1CCCC1)c1ccc(-c2cccc([N+](=O)[O-])c2)o1 | active: 4.93
CC(C)c1ccc(/C=C/C(=O)NC2=NCCS2)cc1 | 0.00731
Cn1cccc1C(=O)OCc1csc(-c2ccccc2)n1 | -0.0668
O=C(Nc1ccc(N2CCOCC2)cc1)c1cccc(S(=O)(=O)N2CCCCC2)c1 | 0.129
Cc1cccc(Nc2nc(N)nc(CN3CCC(C)CC3)n2)c1C | 0.0689
Cc1cc(N2CCCC2=O)c(N)cc1N | -0.104
CCCCn1c(NS(=O)(=O)c2ccc(C)cc2)c(S(=O)(=O)c2ccccc2)c2nc3ccccc3nc21 | -0.84
CC(=O)Nc1ccc(/C=N/Nc2nc3ccccc3[nH]2)cc1 | -0.184
COc1ccc(C2Nc3ccccc3C(=O)N2Cc2ccco2)cc1CN1C(=O)c2ccccc2C1=O (centres undefined) | -0.0741
COC(=O)NNC(=O)c1ccccc1C | -0.103
COc1cccc(C(=O)N(C)c2nnc(-c3ccncc3)s2)c1 | -0.208
Cc1cccc(-c2nc(CS(=O)CC(=O)NCc3cccs3)c(C)o2)c1 (centres undefined) | -0.214
CC(C)C(=O)Nc1cccc(-c2nc3ccccc3c(=O)o2)c1 | -1.86
COc1ccc(/C=C/c2nnc(NC(=O)COc3cccc(C)c3)s2)cc1 | -0.0413
Cc1c(NC(=O)CCC(=O)N2CCCCC2)c(=O)n(-c2ccccc2)n1C | -0.244
O=C(NCCOC12CC3CC(CC(C3)C1)C2)c1cccc(Br)c1 | -0.4
N#CCCN1CCN(C(=S)c2ccc(-c3cc(Cl)ccc3Cl)o2)CC1 | -0.193
Cc1nc(-c2ccccc2)sc1C(=O)CSc1ccc(F)cc1 | -0.323
O=C(O)CCSc1nc2ccc(Br)cc2[nH]1 | 0.089
CC(C)(C)C(=O)Nc1ccnc(-c2cccnc2)n1 | 0.0335
Nc1nc(NCc2ccco2)nc(N2CCCCC2)c1[N+](=O)[O-] | -0.0744
CCOC(=O)c1c(NC(=O)C(=O)N/N=C/c2ccccc2OC)sc2c1CCCCC2 | 0.206
O=C(NCC(=O)N(Cc1ccco1)C(C(=O)NC1CCCCC1)c1cccnc1)c1ccco1 (centres undefined) | 0.556

Structure (SMILES) | z-score
CC1=C(C)CC2C(=O)N(c3cccc4ccccc34)C(=O)C2C1 (centres undefined) | 0.177
Cc1cc(-c2ccc(Cl)cc2)c(C#N)c(N)n1 | -0.315
Cc1ccn(C(=O)c2cc3ccccc3oc2=O)n1 | -0.371
CCOC(=O)c1ccc(S(=O)(=O)NNC(=O)COc2ccc(C)cc2)cc1 | -0.148
C=CCCC(=O)Nc1nc(C)c(-c2csc(Nc3ccc(Cl)cc3Cl)n2)s1 | -0.203
CNC(=S)NNC(=O)Cc1ccc(O)cc1 | 0.306
Cc1cccc(Nc2cc(=O)[nH]c(=O)[nH]2)c1 | -0.155
COC(=O)Nc1c(C)n(C)n(-c2ccccc2)c1=O | -0.00194
CCCN(CCC)Cc1c(C(=O)OCC)nnn1-c1nonc1N | 0.913
Cc1ccc(-c2csc(=S)n2CC(=O)OCC(=O)NCc2ccc(F)cc2)cc1 | -0.29
Cc1cc(C)cc(NC(=S)NC2CC3CCC(C2)N3Cc2ccco2)c1 (centres undefined) | 1.02
COc1ccccc1/C=C/C=N\N1CCN(Cc2ccccc2Cl)CC1 | active: 5.52
CC(C)NS(=O)(=O)c1ccc(OCC(=O)NCc2cccnc2)cc1 | -0.193
c1nc2sc3c(c2c2nnnn12)CCCC3 | 0.905
O=C(CSc1nc2ccccc2[nH]1)Nc1ccc(F)c(F)c1 | -0.0142
Cc1nc(NC(=O)CN(C)S(=O)(=O)c2ccc(Br)cc2)sc1C | -1.12
N#C/C(=C/c1ccc(N2CCOCC2)c([N+](=O)[O-])c1)C(N)=O | -0.068
COc1ccc(OCCCSc2ncccn2)cc1 | 0.783
CCCCNC(=S)N/N=C/C1=CCC2CC1C2(C)C (centres undefined) | 1.99
Cc1cccc(OCc2nc3ccccc3c(=O)n2N)c1 | -0.29
CN1CCN(C(=O)C2(NC(=O)NCc3ccccc3)CCCCC2)CC1 | 1.03
O=C1/C(=C\c2ccco2)CCC/C1=C\c1ccco1 | -0.207
